Assay results published in the RNAGym collection of RNA variant scans (doi:10.1073/pnas.2313332121).
Variants at the background level are over-represented here.

B1: TPR 5TU (parent)
chain: GGAUCUUCUCGAUCUAACAAAAAAGACAAAUCUGCCACAAAGCUUGAGAGCAUCUUCGGAUGCAGAGGCGGCAGCCUUCGGUGGCGCGAUAGCGCCAACGUUCUCAACUAUGACACGCAAAACGCGUGCUCCGUUGAAUGGAGUUUAUCAUG

Variants of: B1
Experiment: polymerase ribozyme fitness, log enrichment relative to wild type (log ratio); higher = more active; in vitro selection for triplet polymerase activity
Summary of the method: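 Frozen incubation at −7 °C formed the core of a single, triplicate in vitro selection round applied to PCR-built, transcribed mutant libraries of each subunit of a heterodimeric triplet polymerase ribozyme. Extended constructs were gel-excised, captured with streptavidin beads and amplified by RT-PCR, and input and output libraries were Illumina-sequenced with a filter of ≥10 input reads and ≥1 read per output. Fitness is the logarithm of genotype enrichment relative to wild-type enrichment, with inverse-variance-weighted replicate averaging, and the logarithm is base 2.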

Going from GGAUCUUCUCGAUCUAACAAAAAAGACAAAUCUGCCACAAAGCUUGAGAGCAUCUUCUGAUGCAGAGGCGGCAGCCUUCGGUGGCGCGAUAACGCCAACGUUCUCAACUAUGACACGCAAAACGCGUGCUCCGUUGAAUGGAGUUUAUCAUG [G58U G92A] to GGAUCUUCUCGAUCUAACAAAAAAGACAAAUCUGCCACAAAGCUUGAGAGCAUCUUCUGAUGCAGAGGCGGCAGCCUUCGGUGGCGCGAUAGCCCCAACGUUCUCAACUAUGACACUCAAAACGCGUGCUCCGUUGAAUGGACUUUAUCAUG [G58U G94C G117U G143C], the “polymerase ribozyme fitness (log ratio)” value falls from -2.51 to at most -4.2.

GGAUCUUCUCGAUCUAACAAAAAAGACAAAUCUGCCACAAAGCUUGAGAGCAUCUUCUGAAGCAGAGGCGGCAGCCUUCGGUGGCGCGAUAGCGCGAACGUUCUCACCGAUGACACGCAAAACGCGUGCUCCGUUGAAUGGAGUUUAUCAUG [G58U U61A C96G A107C U109G] and GGAUCUUCUCGAUCUAACAAAAAAGACAAAUCUGCCACAAAGCUUGAGAGCAUCUUCUGAUGCAGAGGCGGCAGCCUUCGGGGGCGCGAUAGCGCCAACGUGCUCAACUAUGACACGCAAAACGCGUGCGUCGUUGAAUGGAGUUUAUCAUG [G58U U82G U102G U130G C131U] cannot be ordered by “polymerase ribozyme fitness (log ratio)” value: at most -4.2 for the first, at most -4.2 for the second.

GGAUCUUCUCGAUCUAACAAAAAAGACAAAUCUGCCACAAAGCUUGAGAGCAUCUUCUGAUGCAGAGGCGGCAGCCUUCGGUGGCGCGAUAGCGCCAACGUUCUCAACUAUGACACGCAAAACGCGGGCUCCGUUGAAUGCAUUUUAUCAUG [G58U U127G G141C G143U] and GGAUCUUCUCGAUCUAACAAAAAAGACAAAUCUGCCACAAAGCUUGAGAGCAUCUUCGAGUACAGAGGAGGCACCCUUCGGUGGCGCGAUAGCGCAAACGUUCUCAACUAUGACACGCAAAACGCGUGCUCCGUUGUAUGGAGUUUAUCAUG [G59A A60G G62A C69A G74C C96A A137U] cannot be ordered by “polymerase ribozyme fitness (log ratio)” value: at most -4.2 for the first, at most -4.2 for the second.

Compared with GGAUCUUCUCGAUCUAACAAAAAAGACAAAUCUGCCACAAAGCUUGAGAGCAUCUUCGAAUGCUGAGGCGGCAGCCUUCGGUGGAGCGAUAACGCCAACGUUCUCAACUAUGACACGCAAAACGCGUGCUCCGUUGAAUGGAGCUUAUCAUG [G59A A64U C85A G92A U144C], GGAUCUUCUCGAUCUAACAAAAAAGACAAAUCUGCCACAAAGCUUGAGAGCAUCUUCGAAUGCAGAGGCGGCAGCCUUCGGUGGCGCGAUAGCGCCAACGUUCUCGACUAUGACACGCAAAACGCGUGCUCCGAUGAAUGGAGUUUAUCAUG [G59A A106G U134A] is higher in “polymerase ribozyme fitness (log ratio)” value: at most -4.2 for the first, -2.03 for the second.

First: GGAUCUUCUCGAUCUAACAAAAAAGACAAAUCUGCCACAAAGCUUGAGAGCAUCUUCGAAUGCAGAGGCGGCAGCCUUCGGUGGCGCGAUAGCGCCAACGUUCUCAACUAUGACCAGCAAAACGCGUGCUCCGUUGAGUGGAGUUUAUCAUG [G59A A115C C116A A138G]
Second: GGAUCUUCUCGAUCUAACAAAAAAGACAAAUCUGCCACAAAGCUUGAGAGCAUCUUCGAAUGCAGAGGCGGCAGCCUUCGGUGGCGCGAUAGCGCCAACGUUCUCAACUAUGACACGCAAAUCGCGUGCUCCGUUGAAUGGAGUUUAUCAUG [G59A A122U]
The “polymerase ribozyme fitness (log ratio)” value of the first is lower: at most -4.2 for the first, 0.148 for the second.

Going from GGAUCUUCUCGAUCUAACAAAAAAGACAAAUCUGCCACAAAGCUUGAGAGCAUCUUCGAAUGCAGAGGCGGCAGCCUUCGGUGGCGCGAUAGCGCCAACGUUCUCAACUAUGACACGCAAAACGCGUGCUCCGUUGACUGGAGUUUAUCAUG [G59A A138C] to GGAUCUUCUCGAUCUAACAAAAAAGACAAAUCUGCCACAAAGCUUGAGAGCAUCUUCGAAUGCAGAGGCGGCAGCCUUCGGUGGCGCGAUAGCGCCAACGUUCUCAACUAUGACACGCAAAACGCGUGCUCCGUUGAAUGGGGUUUAUCAUG [G59A A142G], the “polymerase ribozyme fitness (log ratio)” value rises from at most -4.2 to -0.65.

GGAUCUUCUCGAUCUAACAAAAAAGACAAAUCUGCCACAAAGCUUGAGAGCAUCUUCGAAUGUAGAGGCGGCAGCCUUCGGUGGAGCGAUAGCGCCAACGUGCUCAACUAUGACACGCAAAACGCGUGCUCCGUUGAAUGGAGUUUAUCAUG [G59A C63U C85A U102G] and GGAUCUUCUCGAUCUAACAAAAAAGACAAAUCUGCCACAAAGCUUGAGAGCAUCUUCGAAUGCAGAGGCGGCAGACUUCGGUGGCGCGAUAGCGCCAACGUUCUCAACUAUGACACGCAAAACUCGUGCUCCGUUGAAUGCAGUUUAUCAUG [G59A C75A G124U G141C] cannot be ordered by “polymerase ribozyme fitness (log ratio)” value: at most -4.2 for the first, at most -4.2 for the second.

Going from GGAUCUUCUCGAUCUAACAAAAAAGACAAAUCUGCCACAAAGCUUGAGAGCAUCUUCGAAUGCAGAGGCGGCAGGCUUCGGUGGCGCGAUAGCGCCAACGUUCUCAACUAUGACACGCAAAUCGCGUGAUCCGUUGAAUGGAUUUUAUCAUG [G59A C75G A122U C129A G143U] to GGAUCUUCUCGAUCUAACAAAAAAGACAAAUCUGCCACAAAGCUUGAGAGCAUCUUCGAAUGCAGAGGCGGCAGUCUUCGGUGGUGCGAUAGCGCCAACGUUCUCAACUAUGACACGCAAAACGCGUGCUCCGUUGAAUGGAGAUUAUCAUG [G59A C75U C85U U144A], the “polymerase ribozyme fitness (log ratio)” value rises from -3.5 to -1.61.

GGAUCUUCUCGAUCUAACAAAAAAGACAAAUCUGCCACAAAGCUUGAGAGCAUCUUCGAAUGCAGAGGCGGCAGUCUUCGGUGGCGCGAUAGCGCCAACGGUCUCAACUAUGACAAGCAAAUCGCGUGCUCCGUUCAAUGGAGUUUAUCAUG [G59A C75U U101G C116A A122U G136C] and GGAUCUUCUCGAUCUAACAAAAAAGACAAAUCUGCCACAAAGCUUGAGAGCAUCUUCGAAUGCAGAGGCGGCAGCGUUCCGUGGCGCGAUAGCGCCAACGUUCUCAACUAUGACAGGGAAAACGCGUGCUCCGUUGAAUGGAGUUUAUCAUG [G59A C76G G80C C116G C118G] cannot be ordered by “polymerase ribozyme fitness (log ratio)” value: at most -4.2 for the first, at most -4.2 for the second.

In the case of GGAUCUUCUCGAUCUAACAAAAAAGACAAAUCUGCCACAAAGCUUGAGAGCAUCUUCGAAUGCAGAGGCGGCAGCCUUCGGUGGGGCGAUAGCGCCUACGUUCUCAACUAUGCCACGCAAAACGCGUGCUCCGUUGAAUGGAGUUUAUCCUG [G59A C85G A97U A113C A150C], the “polymerase ribozyme fitness (log ratio)” value is reported as at most -4.2.
